In one test the target is T1, mCD26-Fc (mouse, UniProt P28843 29-760, limits assumed).
T1 construct: Off-target in SPR; construct not described further; also called mCD26-Fc-His; not shown: Fc
Put plainly: SPR, Fc-tagged CD26 captured on protein A. The procedure: (§1) Recombinant protein A was immobilized on a High Capacity Amine sensor chip (Bruker) after NHS/EDC activation resulting in approx. 2000 RU with a Sierra SPR-32 system (Bruker). The chip was equilibrated with SPR running buffer (PBS 0.05%, Tween pH 7.3). Injection of ethanolamine after ligand immobilization was used to block unreacted NHS groups. The Fc-tagged FAP and CD26 target molecules were injected with 60 nM followed by the injection of FAP binding proteins. Upon binding, target analyte was accumulated on the surface increasing the refractive index. This change in the refractive index was measured in real time and plotted as response or resonance units versus time. The FAP binding proteins were applied to the chip in serial dilutions with a flow rate of 30 μl/min. The association was performed for 120 seconds and the dissociation for 180 seconds. After each run, the chip surface was regenerated with 30 μl regeneration buffer (10 mM glycine pH 2.0) and equilibrated with running buffer. Binding studies were carried out by the use of the Sierra SPR-32 system (Bruker); data evaluation was operated via the Sierra Analyser software, provided by the manufacturer, by the use of the Langmuir 1:1 model (RI=0). Evaluated dissociation constants (KD) were standardized against the immobilized protein and indicated.
In general terms: In SPR one partner is held on a chip, and binding of the other changes the refractive index at the surface.

The target of another test is T2, hCD26-Fc (human, UniProt P27487 29-766, limits assumed).
T2 construct: Off-target in SPR; the in-house construct is not described further; also called hCD26-Fc-His; not shown: Fc
As to the kind of experiment: SPR, Fc-tagged CD26 captured on protein A. On the procedure: as §1

Test [1] addresses T3, mCD26 expressed on HEK293-mCD26 cells (mouse, UniProt P28843 1-760).
T3 construct: whole, on cells
As to the kind of experiment: flow cytometry on HEK293-mCD26 cells. The procedure: (§2) Flow cytometry was used to analyze the interaction of FAP binding proteins with cell surface-exposed hFAP and mFAP. FAP overexpressing human embryonic kidney cell line HEK293, CD26-overexpressing HEK293-cells, native FAP expressing cell line Wi38 and empty vector control HEK293-pEntry cells were used. The anti-hFAP antibody (R&D Systems, MAB3715-100) with a concentration of 1 μg/ml in combination with anti-mouse-IgG-Alexa488 (Invitrogen, A10680) with a 1:1000 dilution was used as positive control for hFAP-expressing cells. Anti-mFAP antibody (R&D Systems, MAB9727) with a concentration of 1 μg/ml in combination with anti-rat-IgG-Alexa488 (Invitrogen, A11006) with a dilution of 1:1000 was used as positive control for mFAP-expressing cells.
(§3) Cells were trypsinized and resupended in medium containing FCS, washed and stained in pre-cooled FACS blocking buffer (3% FCS/PBS). A suspension with a cell concentration of 1×10⁶ cells/ml was prepared for cell staining and filled with 100 μl/well into a 96 well plate (Greiner) in triplicate for each cell line.
(§4) Affilin® proteins were tested with a concentration of 1 μM, 100 nM, 10 nM, or 1 nM on FAP expressing cells HEK293-hFAP, HEK293-mFAP and Wi38-cells. To exclude an unspecific binding, Affilin® proteins were also incubated on CD26 expressing cells HEK293-hCD26 and HEK293-mCD26 and control cells HEK293-pEntry with the same concentrations. […] Supernatants were removed after 45 min, cells were washed in blocking buffer and 100 μl/well rabbit anti-StrepTag antibody (GenScript; A00626), 1:300 diluted in FACS blocking buffer were added. After removal of the primary antibody, goat anti-rabbit-IgG-Alexa Fluor 488 antibody (Invitrogen; A11008) was applied in a 1:1000 dilution. Flow cytometry measurement was conducted on the Guava easyCyte 5HT device from Merck-Millipore at excitation wavelength 488 nm and emission wavelength 525/30 nm.

The target of a further test is T4, hFAP-Fc (human, UniProt Q12884 26-760).
T4 construct: extracellular domain; Made in house in Expi293-F cells; also called hFAP-Fc-His; human FAP; not shown: IgG1-Fc
T4 sequence (looked up): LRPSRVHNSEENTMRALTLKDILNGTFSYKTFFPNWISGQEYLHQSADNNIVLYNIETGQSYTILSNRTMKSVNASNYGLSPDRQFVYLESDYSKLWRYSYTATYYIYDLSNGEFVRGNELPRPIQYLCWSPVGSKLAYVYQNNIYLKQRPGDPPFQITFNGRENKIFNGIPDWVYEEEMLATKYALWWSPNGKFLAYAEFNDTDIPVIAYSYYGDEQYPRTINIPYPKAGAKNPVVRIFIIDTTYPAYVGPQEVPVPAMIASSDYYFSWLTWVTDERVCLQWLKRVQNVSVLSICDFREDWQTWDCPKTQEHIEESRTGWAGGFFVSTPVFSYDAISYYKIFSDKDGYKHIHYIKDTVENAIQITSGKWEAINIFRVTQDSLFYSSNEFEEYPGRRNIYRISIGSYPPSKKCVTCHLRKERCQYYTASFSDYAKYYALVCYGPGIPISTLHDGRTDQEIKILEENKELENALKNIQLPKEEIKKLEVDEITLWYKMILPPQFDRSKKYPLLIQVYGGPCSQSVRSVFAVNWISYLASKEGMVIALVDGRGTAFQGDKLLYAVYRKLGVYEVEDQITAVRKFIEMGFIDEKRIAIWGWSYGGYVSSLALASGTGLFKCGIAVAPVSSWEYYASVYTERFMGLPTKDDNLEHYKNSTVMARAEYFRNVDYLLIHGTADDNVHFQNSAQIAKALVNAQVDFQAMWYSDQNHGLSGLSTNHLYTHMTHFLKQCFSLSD
As to the kind of experiment: SPR (Sierra SPR-32), hFAP-Fc captured on protein A, 1:1 Langmuir. On the procedure: as §1

The target of test [2] is T5, hCD26 expressed on HEK293-hCD26 cells (human, UniProt P27487 1-766).
T5 construct: whole, on cells
Put plainly: flow cytometry on HEK293-hCD26 cells. The procedure:
as §2, §3, §4
For orientation: In flow cytometry, cells or beads pass a laser one at a time.

hCD26-Fc, sequence (P27487 29-766 limits assumed): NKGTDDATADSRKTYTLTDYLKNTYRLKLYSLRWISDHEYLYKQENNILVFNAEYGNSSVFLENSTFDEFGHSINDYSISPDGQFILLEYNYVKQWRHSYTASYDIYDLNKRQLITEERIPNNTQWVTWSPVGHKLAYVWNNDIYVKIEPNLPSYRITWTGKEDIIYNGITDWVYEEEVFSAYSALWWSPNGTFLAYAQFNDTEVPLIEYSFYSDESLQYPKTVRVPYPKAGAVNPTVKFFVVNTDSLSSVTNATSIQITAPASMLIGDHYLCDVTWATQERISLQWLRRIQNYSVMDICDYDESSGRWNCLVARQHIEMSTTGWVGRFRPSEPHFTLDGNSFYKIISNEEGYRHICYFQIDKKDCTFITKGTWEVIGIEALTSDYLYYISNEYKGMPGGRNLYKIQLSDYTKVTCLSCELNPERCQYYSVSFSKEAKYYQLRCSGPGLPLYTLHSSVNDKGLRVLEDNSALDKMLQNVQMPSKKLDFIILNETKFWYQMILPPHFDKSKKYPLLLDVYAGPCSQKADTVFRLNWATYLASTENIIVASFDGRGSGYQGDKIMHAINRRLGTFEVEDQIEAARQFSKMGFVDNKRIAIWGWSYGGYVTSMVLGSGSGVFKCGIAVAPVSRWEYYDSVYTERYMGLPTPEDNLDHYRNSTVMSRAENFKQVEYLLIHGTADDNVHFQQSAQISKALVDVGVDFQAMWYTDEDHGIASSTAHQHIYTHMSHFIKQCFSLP
mCD26-Fc, sequence (P28843 29-760 limits assumed): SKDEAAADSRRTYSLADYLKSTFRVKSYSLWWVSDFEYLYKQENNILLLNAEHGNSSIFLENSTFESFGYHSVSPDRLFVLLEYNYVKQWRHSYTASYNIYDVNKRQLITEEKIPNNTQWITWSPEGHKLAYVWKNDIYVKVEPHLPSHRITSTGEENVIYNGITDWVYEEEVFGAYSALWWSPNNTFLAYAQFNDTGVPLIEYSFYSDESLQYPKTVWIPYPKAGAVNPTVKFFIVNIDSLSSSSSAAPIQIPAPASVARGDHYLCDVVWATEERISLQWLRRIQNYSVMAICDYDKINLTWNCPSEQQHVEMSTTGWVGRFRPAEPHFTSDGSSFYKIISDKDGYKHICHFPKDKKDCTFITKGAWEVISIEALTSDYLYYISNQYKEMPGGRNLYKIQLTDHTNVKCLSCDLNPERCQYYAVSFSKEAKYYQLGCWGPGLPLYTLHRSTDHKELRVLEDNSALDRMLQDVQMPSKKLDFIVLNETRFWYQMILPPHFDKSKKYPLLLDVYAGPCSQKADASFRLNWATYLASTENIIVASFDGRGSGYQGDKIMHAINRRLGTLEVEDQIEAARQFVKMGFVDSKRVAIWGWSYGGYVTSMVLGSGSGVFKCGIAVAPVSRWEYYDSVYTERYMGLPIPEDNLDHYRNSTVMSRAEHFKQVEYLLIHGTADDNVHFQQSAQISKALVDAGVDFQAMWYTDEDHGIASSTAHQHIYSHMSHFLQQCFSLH

B1: Affilin®-217966 (designed binder)
chain: MQIFVKTLTPEWHIIGKTITLEVEPSDTIENVKAKIQDKEGIPPDQQNLAWAGKQLEDGRTLSDYNINHGARLMLKLALRAA
notes: Ubiquitin mutein
As usually defined, the Kd is the equilibrium constant for the complex coming apart. Low readings indicate tighter binding, high ones weaker binding. For the molecule B1, the binding result is reported as “no binding” in the test with mCD26-Fc; “no binding” with hCD26-Fc; “no binding (tested: 1 µM, 100 nM, 10 nM, or 1 nM)” in test [1]; “no binding (tested: 1 µM, 100 nM, 10 nM, or 1 nM)” in test [2]. The same molecule returned a Kd with hFAP-Fc of 7.8 nM.

B2: Affilin®-217862 (designed binder)
chain: MQIFVWTKDYKGITLEVEPSDTIENVKAKIQDKEGIPPDQQTLTWKGKQLEDGRTLSDYNIMVWPNLWLRLRAA
notes: Ubiquitin mutein
B2: the binding result is “no binding” with mCD26-Fc; “no binding” with hCD26-Fc; “no binding (tested: 1 µM, 100 nM, 10 nM, or 1 nM)” in test [1]; “no binding (tested: 1 µM, 100 nM, 10 nM, or 1 nM)” in test [2]. Moreover, in the test with hFAP-Fc, the Kd is 7 nM.

B3: Affilin®-223019 (designed binder)
chain: MQIFVWTKTQKLITLEVEPSDTIENVKAKIQDKEGIPPDQQALFWKGKQLEDGRTLSDYNIWSWPNLWLELMLRAA
notes: Ubiquitin mutein
With B3, the binding result is recorded as “no binding” with mCD26-Fc; “no binding” in the test with hCD26-Fc; “no binding (tested: 1 µM, 100 nM, 10 nM, or 1 nM)” in test [1]; “no binding (tested: 1 µM, 100 nM, 10 nM, or 1 nM)” in test [2]. The molecule also gave a dissociation constant Kd in the test with hFAP-Fc of 2 nM.

B4: Affilin®-217917 (designed binder)
chain: MQIFVWTVVQKPITLEVEPSDTIENVKAKIQDKEGIPPDQQKLHWRGKQLEDGRTLSDYNIPFFPHLILMLQLRAA
notes: Ubiquitin mutein
As to B4, the binding result in the test with mCD26-Fc and in the test with hCD26-Fc was “no binding” in each case. This molecule yielded an equilibrium dissociation constant (Kd) with hFAP-Fc of 43 nM.

B5: Affilin®-223054 (designed binder)
chain: MQIFVWTMWHKKITLEVEPSDTIENVKAKIQDKEGIPPDQQFLVWKGKQLEDGRTLSDYNISQWPNLWLGLKLRAA
notes: Ubiquitin mutein
Turning to B5, the binding result is “no binding” with mCD26-Fc; “no binding” with hCD26-Fc; “no binding (tested: 1 µM, 100 nM, 10 nM, or 1 nM)” in test [1]; “no binding (tested: 1 µM, 100 nM, 10 nM, or 1 nM)” in test [2]. Further, the Kd in the test with hFAP-Fc amounted to 2 nM.

B6: Affilin®-217993 (designed binder)
chain: MQIFVWTITGKTITLEVEPSDTIENVKAKIQDKEGIPPDQQRLIWAGKQLEDGRTLSDYNIRSWPNLHLVLRLRAAMQIFVHTATGKTITLEVEPSDTIENVKAKIQDKEGIPPDQQRLIWAGKQLEDGRTLSDYNIEDFPPLHLVLRLRAASAWSHPQFEK
notes: Ubiquitin mutein
On to B6, for which the binding result is on record as “no binding” in the test with mCD26-Fc; “no binding” with hCD26-Fc; “no binding (tested: 1 µM, 100 nM, 10 nM, or 1 nM)” in test [1]; “no binding (tested: 1 µM, 100 nM, 10 nM, or 1 nM)” in test [2]. Also, the Kd with hFAP-Fc turned out to be 23 nM.

The record behind these values is patent publication US20260176310A1 (NAVIGO PROTEINS, published 2026).
